# Measured values taken from PubChem BioAssay AID1794842 (National Center for Advancing Translational Sciences (NCATS), 2023).
# Screen size: about 2,800 compounds; fewer than 10 were called active. The call rests on the fitted dose curve; in most records, active means well fitted curve in the direction sought with a large enough effect; inconclusive means small, poorly fitted or top-dose-only effect, or another doubt; inactive means no such curve, though single readings can be large or run the other way. This is one part of the list.
# Biological target: Metallo-beta-lactamase type 2 (Klebsiella pneumoniae) (UniProt C7C422)
# UniProt C7C422, sequence (C7C422 whole entry, looked up): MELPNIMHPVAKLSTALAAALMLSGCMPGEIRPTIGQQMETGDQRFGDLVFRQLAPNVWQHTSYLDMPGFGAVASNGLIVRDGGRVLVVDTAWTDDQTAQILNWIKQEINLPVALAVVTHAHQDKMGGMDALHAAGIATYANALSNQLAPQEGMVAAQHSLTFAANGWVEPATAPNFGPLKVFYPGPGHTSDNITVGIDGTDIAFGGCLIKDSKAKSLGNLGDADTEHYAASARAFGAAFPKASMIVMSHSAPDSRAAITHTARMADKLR
# Assay: qHTS to identify inhibitors of the New Delhi Metallo-beta-lactamase (NDM): Meropenem screen against the machine-based learning selections. Further: % of control where 0% means no effect.
# Details: Purified NDM-1, meropenem hydrolysis, absorbance 300 nm; at 38.4 µM (top of the series) unless noted
# Procedure, shortened: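 NDM-1 (2 nM final) in 50 mM HEPES pH 7.0, 1 uM Zn2SO4, 0.01% Tween20 was preincubated with compounds for >30 min. Nitrocefin (16.7 uM final) was read at 485 nm after 15 min, and meropenem (50 uM final) at 300 nm after 30 min.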
row,Structure (SMILES),"activity change, negative = inhibition"
1,COC[C@H]1CCCN1C(=O)[C@@H](C)C1CC[C@@]2(C)CC[C@H](NC(=O)CC(C)(C)C)[C@@H](C)[C@@H]2[C@H]1O (some centres not stated),inactive: 0.035%
2,Oc1ccccc1-c1cnc2n[nH]c(-c3ccc4c(c3)OCO4)c2n1,inactive: 7.17% [at 57.5 µM]
3,Cc1cc(C)cc(-c2ccc(C(=O)N3CCC(Oc4cccnc4)CC3)cn2)c1,inactive: -0.198%
4,COc1cccc(CN[C@@H]2CCC[C@@H](C(=O)NC3CCOCC3)CC(=O)N(C)C2)c1,inactive: 1.5% [at 57.5 µM]
5,N#Cc1cccnc1N1CCC(NC(=O)c2ccc3cccc(F)c3n2)CC1,inactive: 0.691%
6,COCCOc1ncccc1-c1noc([C@@H]2CCCN2CC(C)(C)C)n1,inactive: -2.19% [at 57.5 µM]
7,CSc1ccc(-c2ccc3c(c2)C(=O)N2CCN(C(=O)CCC(=O)O)C[C@@H]2C(=O)N3)cc1,inactive: 11%
8,N#Cc1ccc(C(=O)N2C[C@@H]3C[C@H](C2)c2c(/C=C/c4ccc(Cl)cc4)ccc(=O)n2C3)cc1,inactive: -0.813%
9,CCCc1noc(-c2ccn3c(CNC(=O)c4cccc(N(C)C)c4)nnc3c2)n1,inactive: -1.1%
10,CS(=O)(=O)c1ccc(CN2C[C@H](O)C[C@H]2c2nc(-c3cnccn3)no2)cc1,inactive: -0.572% [at 57.5 µM]
11,c1ccc(-c2ccc3ncc(Nc4cccnc4)n3n2)cc1,inactive: 16.9% [at 76.7 µM]
12,O=C(Nc1ccccc1Cl)N1CCC(Oc2ncccc2C(=O)N2CCCCC2)C1 (configuration not stated),inactive: -1.51%
13,O=C(C1CC(=O)N(c2n[nH]c3ccccc23)C1)N1CCC(c2nc3ccccc3[nH]2)CC1 (configuration not stated),inactive: -0.115%
14,CC(=O)Nc1cccc(-c2n[nH]c3c2CC(=O)N(c2ccccc2)C3)c1,inactive: 8.26% [at 57.5 µM]
15,Oc1cccc(-c2cc3c(cn2)NCCN(Cc2ccccc2)C3)c1,inactive: 7.87% [at 57.5 µM]
16,CN(C)c1ccc(-c2nnnn2[C@H]2CO[C@H]3[C@@H]2OC[C@@H]3NS(=O)(=O)c2ccc3ccccc3c2)cc1,inactive: 6.07%
17,CC(C)(C)c1nnc([C@H]2CCN(C(=O)C3CC3)C2)o1,inactive: 1.24% [at 76.7 µM]
18,Cc1ccccc1N1Cc2c(NCC3CC3)ncnc2N(C)CC1=O,inactive: -3.06%
19,CCN1CC(C(=O)N(C)Cc2ccc(Oc3ccccc3)cc2)CCC1=O (configuration not stated),inactive: 1.3%
20,O=C1OC[C@@H]2CCN(Cc3ccc4c(c3)OCO4)Cc3ccc(F)cc3N12,inactive: -0.249% [at 57.5 µM]
21,O=C(NCCCc1nc2ccc(Cl)cc2[nH]1)[C@H]1CCC[C@@H](O)C1,inactive: -4.03%
22,COCc1noc([C@@H]2CN(C(=O)c3cccc(Cl)c3)C[C@H]2CO)n1,inactive: -1.55%
23,COc1ccc(-n2nc(C)c([C@H]3C=C[C@@H](OC(=O)Nc4cccc(F)c4)C3)c2C)cc1,inactive: 2.67% [at 57.5 µM]
24,Cc1ccsc1-c1[nH]nc2ncc(-c3cccc(CO)c3)nc12,inactive: 6.68% [at 57.5 µM]

row,Structure (SMILES),"activity change, negative = inhibition"
1,O=C1CCN(Cc2ccccc2OCC(O)CN2CCCCC2)CCN1 (configuration not stated),inactive: 0.0924%
2,Cn1cc(CN(Cc2c(C(=O)N3CCCC3)nc3sccn23)C2CC2)cn1,inactive: -0.174%
3,Cc1ccccc1Nc1n[nH]c(C(O)c2cccc(C(F)(F)F)c2)n1 (configuration not stated),inactive: -2.14% [at 57.5 µM]
4,Cc1ncc2c(c1CNC(=O)c1ccc3cccnc3c1O)CCNC2,inactive: 43.7%
5,O=C1NC(=NC2CCCC2)C2(CCN([S+](=O)([O-])c3cccc(C(F)(F)F)c3)C2)N1c1cccnc1 (configuration not stated),inactive: 0.362%
6,CN1C[C@H](NCc2cccc(Cl)c2)CCC[C@@H](C(=O)NC2CC2)CC1=O,inactive: 0.224% [at 57.5 µM]
7,CC(=O)c1ccc(NC(=O)N2C[C@@H]3C[C@H](C2)c2ccc(NC(=O)CN(C)C)c(=O)n2C3)cc1,inactive: 46.6%
8,Cc1ccccc1-c1cccc(CCOc2cnc3c(ccn3CC(=O)O)c2)c1,inactive: 15.3% [at 57.5 µM]
9,O=C(NCC1CC1)c1ccnc(-c2nnc3ccc(Nc4ccccc4)nn23)c1,inactive: 9.51% [at 57.5 µM]
10,O=C(NCC1CCOCC1)c1c[nH]c2ccccc12,inactive: -3.51%
11,CNc1ncc(C(=O)N2CCCC(CC=C(C)C)(C(=O)O)C2)cn1 (configuration not stated),inactive: 5.66%
12,CC(=O)c1ccc(NC(=O)N[C@H]2CO[C@H]3[C@@H]2OC[C@@H]3n2nnnc2Oc2cccc(N(C)C)c2)cc1,inactive: 10.6%
13,OC1(c2csc(CN3CCc4ccccc4C3)n2)CCN(C2CCOCC2)CC1,inactive: -3.56% [at 57.5 µM]
14,COc1ccccc1C(=O)NCc1nnc2cc(-c3nc(C4CC4)no3)ccn12,inactive: 3.99%
15,CN(C)c1ccc(C(=O)N2CCN3C(=O)c4cc(-c5ccc6c(c5)OCO6)ccc4NC(=O)[C@H]3C2)cc1,inactive: 12.9%
16,Cc1ccc2nc(CO[C@H]3CN(Cc4ccc(Cl)cc4)C[C@H]3F)[nH]c2c1,inactive: -0.84% [at 57.5 µM]
17,OCc1ccc(-c2cc(-c3ccncc3)c3cncn3c2)cc1,inactive: 9.9% [at 57.5 µM]
18,COc1cccc(-c2cnc3[nH]cc(CC(=O)NCc4cccnc4)c3c2)c1,inactive: -0.122% [at 57.5 µM]
19,CC1=C[C@@H](CNS(C)(=O)=O)[C@H](C(C)C)C[C@H]1CC(=O)NC1CCCC1,inactive: 1.69% [at 57.5 µM]
20,CC1=C[C@@H](CNC(=O)C2CC2)[C@H](C(C)C)C[C@H]1Cc1nc2ccncc2[nH]1,inactive: -1.76% [at 57.5 µM]
21,CC(C)NC(=O)NC[C@H]1OC[C@@H](NCc2cccc(C#N)c2)[C@@H]1O,inactive: 0.107% [at 57.5 µM]
22,C[C@@H]1CN(C(=O)c2cccc(C#N)c2)C[C@]1(C)O,inactive: -0.893%
23,C[C@H]1[C@@H]2[C@@H](O)C([C@H](C)C(=O)NCc3cccs3)CC[C@@]2(C)CC[C@@H]1NC(=O)COc1ccccc1 (some centres not stated),inactive: -1.92%
